Experimental data: paper PMC5386880
No constants are given. Whether binding was seen depends on the method and setting. Some results given as binding are weak or reduced against the parent protein; the word gives no strength. Tags and fused reporters may be left off the sequences shown. Blank lines part the entries; values can stand above or below the binder they belong to.

Chains of the proteins cited; added tags and fusions are not shown.
UniProt P51140: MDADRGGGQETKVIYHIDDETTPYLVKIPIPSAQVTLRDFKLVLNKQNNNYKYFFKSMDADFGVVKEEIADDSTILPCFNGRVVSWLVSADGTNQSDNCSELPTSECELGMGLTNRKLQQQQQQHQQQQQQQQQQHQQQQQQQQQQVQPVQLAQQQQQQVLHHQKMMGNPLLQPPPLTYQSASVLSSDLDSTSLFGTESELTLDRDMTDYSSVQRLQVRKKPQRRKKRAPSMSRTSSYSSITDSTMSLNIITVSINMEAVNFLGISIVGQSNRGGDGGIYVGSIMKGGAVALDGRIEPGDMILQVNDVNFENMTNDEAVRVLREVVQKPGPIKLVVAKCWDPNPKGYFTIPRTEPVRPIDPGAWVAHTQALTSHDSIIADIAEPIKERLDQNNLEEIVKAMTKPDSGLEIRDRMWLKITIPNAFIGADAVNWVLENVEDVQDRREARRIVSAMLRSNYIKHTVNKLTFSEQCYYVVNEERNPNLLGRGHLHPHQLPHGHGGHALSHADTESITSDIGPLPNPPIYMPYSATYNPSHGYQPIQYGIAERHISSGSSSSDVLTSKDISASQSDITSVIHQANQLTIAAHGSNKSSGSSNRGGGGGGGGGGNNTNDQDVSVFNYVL

Target: Dishevelled (Dsh), full length, yeast two-hybrid fusion (Drosophila) (UniProt P51140)
Test: two-hybrid; yeast strain AH109, Matchmaker Two-Hybrid System 3 (pGADT7 and pGBKT7 cotransformed); growth on SD/-Ade/-His/-Leu/-Trp with X-alpha-Gal taken as positive

B1: Frtz with aa 400-500 deleted (protein, UniProt Q9VQ36)
chain: MLLSETHFWTTLREDVVRIKSQDLGAFRYLRQRDKEQEQQDLACLAKRDYTERRNGLAVLKNSGRKSTGRLKDNLKKLEDLLRQHRIIHSEWQDAAQVLLLFSHGLIAHICVDIYTGDILRMVFEKYLVGKLASEVITDAFFTRSHIVLAYNTNQLTVVHLQRPNARSQGPEKIANMDPRIFHVIIPGATERKLSRHLTVNASFDLFVVWTQSSQNEVYPWRPTIRDQDRANIHVFKIKGLQLESIAYCWSENDPLCVDFLRSSESQIITLEQKVSRKGDISAEICSYELAAGKMQRTAITSIPMGAQICSFAFSPDQEKLFLGSVDRNICLHDLVQQSTKYANQIEIVPNQCAWHCDSAMLCVANERSVLQCFDLALATIGHQLVSENVTPSSLLDLSHKIANYVFFGGDQRRPRIELMARALKTFAHTLSEETKDEFSDQVYDLKRRFCFYLLRKNLFAEAFEIAQDVADYDIFMDLYNLTKCISSLSEFAQVAFSQAAAIIHEEDRANGNLSLTCDLRSESACSLSTCSDMLRGQGAGTAPETGLGASQPQSQQVLKNYVPPLPSFKSKVFNAEMIKINIPKPELRPPLPKVSIAPPTSSLASLTLKSNSSLQQAPAKSLHPNGNLWSQDVPDQTVGLPMASSPLPRLPPSNIPDQSAQLGQFSTMPASPPPTGSYQPKFYQHPLVSGNIPAMLPSLTSEDYQKRLLQKKPTASILSNPANPAPTNGEAPATPAKSQTAEKNKVKFSDTIQVAVVPEIPRKEKPMPPKRNGYSRPAARHLTNPKKELADSLPLCHPNDEYLKDFNPITTNVTKPPIRRREEEPKSSSKGGNSSSSSSSIKVVHFGVV
- binding: binds

B3: Fritz (Frtz), full length, yeast two-hybrid fusion (protein, UniProt Q9VQ36 1-951)
chain: MLLSETHFWTTLREDVVRIKSQDLGAFRYLRQRDKEQEQQDLACLAKRDYTERRNGLAVLKNSGRKSTGRLKDNLKKLEDLLRQHRIIHSEWQDAAQVLLLFSHGLIAHICVDIYTGDILRMVFEKYLVGKLASEVITDAFFTRSHIVLAYNTNQLTVVHLQRPNARSQGPEKIANMDPRIFHVIIPGATERKLSRHLTVNASFDLFVVWTQSSQNEVYPWRPTIRDQDRANIHVFKIKGLQLESIAYCWSENDPLCVDFLRSSESQIITLEQKVSRKGDISAEICSYELAAGKMQRTAITSIPMGAQICSFAFSPDQEKLFLGSVDRNICLHDLVQQSTKYANQIEIVPNQCAWHCDSAMLCVANERSVLQCFDLALATIGHQLVSENVTPSSLLDLSHYFVAQPTLLSVAFSRKPDLSTFKHTYAQTDCLLLLVYEQGPLACMRIFGGTGMRGDIHNSGLTADVIADKYLRLQQPDRAVNVLAALNWETYGAMCLITLHKIANYVFFGGDQRRPRIELMARALKTFAHTLSEETKDEFSDQVYDLKRRFCFYLLRKNLFAEAFEIAQDVADYDIFMDLYNLTKCISSLSEFAQVAFSQAAAIIHEEDRANGNLSLTCDLRSESACSLSTCSDMLRGQGAGTAPETGLGASQPQSQQVLKNYVPPLPSFKSKVFNAEMIKINIPKPELRPPLPKVSIAPPTSSLASLTLKSNSSLQQAPAKSLHPNGNLWSQDVPDQTVGLPMASSPLPRLPPSNIPDQSAQLGQFSTMPASPPPTGSYQPKFYQHPLVSGNIPAMLPSLTSEDYQKRLLQKKPTASILSNPANPAPTNGEAPATPAKSQTAEKNKVKFSDTIQVAVVPEIPRKEKPMPPKRNGYSRPAARHLTNPKKELADSLPLCHPNDEYLKDFNPITTNVTKPPIRRREEEPKSSSKGGNSSSSSSSIKVVHFGVV
- binding: binds

B4: Frtz with aa 300-400 deleted (protein, UniProt Q9VQ36)
chain: MLLSETHFWTTLREDVVRIKSQDLGAFRYLRQRDKEQEQQDLACLAKRDYTERRNGLAVLKNSGRKSTGRLKDNLKKLEDLLRQHRIIHSEWQDAAQVLLLFSHGLIAHICVDIYTGDILRMVFEKYLVGKLASEVITDAFFTRSHIVLAYNTNQLTVVHLQRPNARSQGPEKIANMDPRIFHVIIPGATERKLSRHLTVNASFDLFVVWTQSSQNEVYPWRPTIRDQDRANIHVFKIKGLQLESIAYCWSENDPLCVDFLRSSESQIITLEQKVSRKGDISAEICSYELAAGKMQRTAYFVAQPTLLSVAFSRKPDLSTFKHTYAQTDCLLLLVYEQGPLACMRIFGGTGMRGDIHNSGLTADVIADKYLRLQQPDRAVNVLAALNWETYGAMCLITLHKIANYVFFGGDQRRPRIELMARALKTFAHTLSEETKDEFSDQVYDLKRRFCFYLLRKNLFAEAFEIAQDVADYDIFMDLYNLTKCISSLSEFAQVAFSQAAAIIHEEDRANGNLSLTCDLRSESACSLSTCSDMLRGQGAGTAPETGLGASQPQSQQVLKNYVPPLPSFKSKVFNAEMIKINIPKPELRPPLPKVSIAPPTSSLASLTLKSNSSLQQAPAKSLHPNGNLWSQDVPDQTVGLPMASSPLPRLPPSNIPDQSAQLGQFSTMPASPPPTGSYQPKFYQHPLVSGNIPAMLPSLTSEDYQKRLLQKKPTASILSNPANPAPTNGEAPATPAKSQTAEKNKVKFSDTIQVAVVPEIPRKEKPMPPKRNGYSRPAARHLTNPKKELADSLPLCHPNDEYLKDFNPITTNVTKPPIRRREEEPKSSSKGGNSSSSSSSIKVVHFGVV
- binding: binds

The next lines start with the values.

- binding: binds
B2: Frtz with aa 500-600 deleted (protein, UniProt Q9VQ36)
chain: MLLSETHFWTTLREDVVRIKSQDLGAFRYLRQRDKEQEQQDLACLAKRDYTERRNGLAVLKNSGRKSTGRLKDNLKKLEDLLRQHRIIHSEWQDAAQVLLLFSHGLIAHICVDIYTGDILRMVFEKYLVGKLASEVITDAFFTRSHIVLAYNTNQLTVVHLQRPNARSQGPEKIANMDPRIFHVIIPGATERKLSRHLTVNASFDLFVVWTQSSQNEVYPWRPTIRDQDRANIHVFKIKGLQLESIAYCWSENDPLCVDFLRSSESQIITLEQKVSRKGDISAEICSYELAAGKMQRTAITSIPMGAQICSFAFSPDQEKLFLGSVDRNICLHDLVQQSTKYANQIEIVPNQCAWHCDSAMLCVANERSVLQCFDLALATIGHQLVSENVTPSSLLDLSHYFVAQPTLLSVAFSRKPDLSTFKHTYAQTDCLLLLVYEQGPLACMRIFGGTGMRGDIHNSGLTADVIADKYLRLQQPDRAVNVLAALNWETYGAMCLITAAAIIHEEDRANGNLSLTCDLRSESACSLSTCSDMLRGQGAGTAPETGLGASQPQSQQVLKNYVPPLPSFKSKVFNAEMIKINIPKPELRPPLPKVSIAPPTSSLASLTLKSNSSLQQAPAKSLHPNGNLWSQDVPDQTVGLPMASSPLPRLPPSNIPDQSAQLGQFSTMPASPPPTGSYQPKFYQHPLVSGNIPAMLPSLTSEDYQKRLLQKKPTASILSNPANPAPTNGEAPATPAKSQTAEKNKVKFSDTIQVAVVPEIPRKEKPMPPKRNGYSRPAARHLTNPKKELADSLPLCHPNDEYLKDFNPITTNVTKPPIRRREEEPKSSSKGGNSSSSSSSIKVVHFGVV

- binding: binds
B5: Frtz with aa 800-951 deleted (protein, UniProt Q9VQ36)
chain: MLLSETHFWTTLREDVVRIKSQDLGAFRYLRQRDKEQEQQDLACLAKRDYTERRNGLAVLKNSGRKSTGRLKDNLKKLEDLLRQHRIIHSEWQDAAQVLLLFSHGLIAHICVDIYTGDILRMVFEKYLVGKLASEVITDAFFTRSHIVLAYNTNQLTVVHLQRPNARSQGPEKIANMDPRIFHVIIPGATERKLSRHLTVNASFDLFVVWTQSSQNEVYPWRPTIRDQDRANIHVFKIKGLQLESIAYCWSENDPLCVDFLRSSESQIITLEQKVSRKGDISAEICSYELAAGKMQRTAITSIPMGAQICSFAFSPDQEKLFLGSVDRNICLHDLVQQSTKYANQIEIVPNQCAWHCDSAMLCVANERSVLQCFDLALATIGHQLVSENVTPSSLLDLSHYFVAQPTLLSVAFSRKPDLSTFKHTYAQTDCLLLLVYEQGPLACMRIFGGTGMRGDIHNSGLTADVIADKYLRLQQPDRAVNVLAALNWETYGAMCLITLHKIANYVFFGGDQRRPRIELMARALKTFAHTLSEETKDEFSDQVYDLKRRFCFYLLRKNLFAEAFEIAQDVADYDIFMDLYNLTKCISSLSEFAQVAFSQAAAIIHEEDRANGNLSLTCDLRSESACSLSTCSDMLRGQGAGTAPETGLGASQPQSQQVLKNYVPPLPSFKSKVFNAEMIKINIPKPELRPPLPKVSIAPPTSSLASLTLKSNSSLQQAPAKSLHPNGNLWSQDVPDQTVGLPMASSPLPRLPPSNIPDQSAQLGQFSTMPASPPPTGSYQPKFYQHPLVSGNIPAMLP
